B1: MD2603 (Fc fusion)
chain: EVQLVESGGGLVQPGGSLRLSCAATGFTLENKAIGWFRQTPGSEREGVLCISKSGSWTYYTDSMRGRFTISRDNAENTVYLQMDSLKPEDTAVYYCATTTAGGGLCWDGTTFSRLASSWGQGTQVTVSSAAAGGGGSGGGGSGGGGSGGGGSGGGGSGGGGSGGGGSEVQLVESGGGLVQPGGSLRLSCAVSISIFDIYAMDWYRQAPGKQRDLVATSFRDGSTNYADSVKGRFTISRDNAKNTLYLQMNSLKPEDTAVYLCHVSLYRDPLGVAGGMGVYWGKGALVTVSSLINLEAAA[gap - human IgG1 Fc]
B2: MD2601 (Fc fusion)
chain: EVQLVESGGGLVQPGGSLRLSCAVSISIFDIYAMDWYRQAPGKQRDLVATSFRDGSTNYADSVKGRFTISRDNAKNTLYLQMNSLKPEDTAVYLCHVSLYRDPLGVAGGMGVYWGKGALVTVSSAAAGGGGSGGGGSGGGGSGGGGSGGGGSGGGGSGGGGSEVQLVESGGGLVQPGGSLRLSCAATGFTLENKAIGWFRQTPGSEREGVLCISKSGSWTYYTDSMRGRFTISRDNAENTVYLQMDSLKPEDTAVYYCATTTAGGGLCWDGTTFSRLASSWGQGTQVTVSSLINLEAAA[gap - human IgG1 Fc]
B3: MD2602 (Fc fusion)
chain: EVQLVESGGGLVQPGGSLRLSCAVSISIFDIYAMDWYRQAPGKQRDLVATSFRDGSTNYADSVKGRFTISRDNAKNTLYLQMNSLKPEDTAVYLCHVSLYRDPLGVAGGMGVYWGKGALVTVSSAAAGGGGSGGGGSGGGGSGGGGSGGGGSGGGGSGGGGSEVQLVESGGGLVQPGGSLKLSCAASGFTFSTSWMYWLRQAPGKGLEWVSVINTDGGTYYADSVKDRFTISRDNAKDTLYLQMSSLKSEDTAVYYCAKDWGGPEPTRGQGTQVTVSSLINLEAAA[gap - human IgG1 Fc]
B4: MD2604 (Fc fusion)
chain: EVQLVESGGGLVQPGGSLKLSCAASGFTFSTSWMYWLRQAPGKGLEWVSVINTDGGTYYADSVKDRFTISRDNAKDTLYLQMSSLKSEDTAVYYCAKDWGGPEPTRGQGTQVTVSSAAAGGGGSGGGGSGGGGSGGGGSGGGGSGGGGSGGGGSEVQLVESGGGLVQPGGSLRLSCAVSISIFDIYAMDWYRQAPGKQRDLVATSFRDGSTNYADSVKGRFTISRDNAKNTLYLQMNSLKPEDTAVYLCHVSLYRDPLGVAGGMGVYWGKGALVTVSSLINLEAAA[gap - human IgG1 Fc]
B5: MD2642 (Fc fusion)
chain: EVQLVESGGGLVQPGGSLRLSCAVSISIFDIYAMDWYRQAPGKQRDLVATSFRDGSTNYADSVKGRFTISRDNAKNTLYLQMNSLKPEDTAVYLCHVSLYRDPLGVAGGMGVYWGKGALVTVSSGGGGSGGGGSEVQLVESGGGLVQAGGSLKLSCAASGRTYAMGWFRQAPGKEREFVAHINALGTRTYYSDSVKGRFTISRDNAKNTEYLEMNNLKPEDTAVYYCTAQGQWRAAPVAVAAEYEFWGQGTQVTVSS[gap - human IgG1 Fc]GGGGSGGGGSEVQLVESGGGLVQPGGSLRLSCAATGFTLENKAIGWFRQTPGSEREGVLCISKSGSWTYYTDSMRGRFTISRDNAENTVYLQMDSLKPEDTAVYYCATTTAGGGLCWDGTTFSRLASSWGQGTQVTVSSGGGGSGGGGSEVQLVESGGGLVQPGGSLKLSCAASGFTFSTSWMYWLRQAPGKGLEWVSVINTDGGTYYADSVKDRFTISRDNAKDTLYLQMSSLKSEDTAVYYCAKDWGGPEPTRGQGTQVTVSS
B6: MD2606 (Fc fusion)
chain: EVQLVESGGGLVQPGGSLRLSCAVSISIFDIYAMDWYRQAPGKQRDLVATSFRDGSTNYADSVKGRFTISRDNAKNTLYLQMNSLKPEDTAVYLCHVSLYRDPLGVAGGMGVYWGKGALVTVSSGGGGSGGGGSAAA[gap - human IgG1 Fc]
B7: MD2629 (Fc fusion)
chain: EVQLVESGGGLVQPGGSLRLSCAATGFTLENKAIGWFRQTPGSEREGVLCISKSGSWTYYTDSMRGRFTISRDNAENTVYLQMDSLKPEDTAVYYCATTTAGGGLCWDGTTFSRLASSWGQGTQVTVSSAAA[gap - human IgG1 Fc]GGGGSGGGGSEVQLVESGGGLVQPGGSLRLSCAVSISIFDIYAMDWYRQAPGKQRDLVATSFRDGSTNYADSVKGRFTISRDNAKNTLYLQMNSLKPEDTAVYLCHVSLYRDPLGVAGGMGVYWGKGALVTVSSGGGGSGGGGSEVQLVESGGGLVQAGGSLKLSCAASGRTYAMGWFRQAPGKEREFVAHINALGTRTYYSDSVKGRFTISRDNAKNTEYLEMNNLKPEDTAVYYCTAQGQWRAAPVAVAAEYEFWGQGTQVTVSS
B8: MD2628 (Fc fusion)
chain: EVQLVESGGGLVQPGGSLRLSCAVSISIFDIYAMDWYRQAPGKQRDLVATSFRDGSTNYADSVKGRFTISRDNAKNTLYLQMNSLKPEDTAVYLCHVSLYRDPLGVAGGMGVYWGKGALVTVSSGGGGSGGGGSEVQLVESGGGLVQAGGSLKLSCAASGRTYAMGWFRQAPGKEREFVAHINALGTRTYYSDSVKGRFTISRDNAKNTEYLEMNNLKPEDTAVYYCTAQGQWRAAPVAVAAEYEFWGQGTQVTVSSAAA[gap - human IgG1 Fc]GGGGSGGGGSEVQLVESGGGLVQPGGSLRLSCAATGFTLENKAIGWFRQTPGSEREGVLCISKSGSWTYYTDSMRGRFTISRDNAENTVYLQMDSLKPEDTAVYYCATTTAGGGLCWDGTTFSRLASSWGQGTQVTVSS
B9: MD2608 (Fc fusion)
chain: EVQLVESGGGLVQPGGSLRLSCAATGFTLENKAIGWFRQTPGSEREGVLCISKSGSWTYYTDSMRGRFTISRDNAENTVYLQMDSLKPEDTAVYYCATTTAGGGLCWDGTTFSRLASSWGQGTQVTVSSGGGGSGGGGSAAA[gap - human IgG1 Fc]
B10: MD2610 (Fc fusion)
chain: EVQLVESGGGLVQPGGSLKLSCAASGFTFSTSWMYWLRQAPGKGLEWVSVINTDGGTYYADSVKDRFTISRDNAKDTLYLQMSSLKSEDTAVYYCAKDWGGPEPTRGQGTQVTVSSGGGGSGGGGSAAA[gap - human IgG1 Fc]

molecular target: hemagglutinin (HA) of influenza virus H1N1 A/Puerto Rico/8/34-MA (influenza A virus); test: cell-based or functional assay

Binder	average neutralization titer
B1	53.9 nM
B2	9.5 nM
B3	22.9 nM
B4	51.5 nM

molecular target: hemagglutinin (HA) of influenza B/Lee/40 (Old) (influenza B virus); test: cell-based or functional assay

Binder	Average neutralization titers
B5	8.4 nM

molecular target: hemagglutinin (HA) of influenza virus H1N1 A/New Caledonia/20/99 (influenza A virus); test: cell-based or functional assay

Binder	average neutralization titer
B1	78.9 nM
B2	23.5 nM
B3	20.2 nM
B4	34 nM

molecular target: hemagglutinin (HA) of influenza virus H7N3 A/NIBRG/60 (A/mallard/Netherlands/12/00) (influenza A virus); test: cell-based or functional assay

Binder	average neutralization titer
B1	> 1000 nM
B2	670 nM
B3	> 1000 nM
B6	70 nM
B4	> 1000 nM
B7	10.6 nM
B8	8.7 nM

molecular target: hemagglutinin (HA) of influenza virus H3N2 A/Brisbane/10/07 (influenza A virus); test: cell-based or functional assay

Binder	average neutralization titer
B1	634 nM
B2	50.9 nM
B3	72 nM
B6	22.1 nM
B4	272 nM
B7	18.4 nM
B8	21.3 nM

molecular target: hemagglutinin (HA) of influenza virus H3N2 A/HK/1/68-MA (influenza A virus); test: cell-based or functional assay

Binder	average neutralization titer
B1	491 nM
B2	246 nM
B3	480 nM
B4	103 nM
B7	11 nM
B8	30.1 nM

molecular target: hemagglutinin (HA) of influenza virus H1N1 A/California/07/09 (influenza A virus); test: cell-based or functional assay

Binder	average neutralization titer
B7	5.5 nM
B8	3.2 nM

molecular target: hemagglutinin (HA) of influenza virus B/Lee/40 (Old) (influenza B virus); test: cell-based or functional assay

Binder	average neutralization titer
B1	202 nM
B2	360 nM
B3	317 nM
B4	126 nM
B7	261 nM
B8	106 nM

molecular target: hemagglutinin (HA) of influenza virus H5N1 A/Vietnam/1194/04 (influenza A virus); test: cell-based or functional assay

Binder	average neutralization titer
B2	16.6 nM
B6	5.8 nM
B7	13.1 nM
B8	6.3 nM

molecular target: hemagglutinin (HA) of influenza virus B/Brisbane/60/08 (Victoria) (influenza B virus); test: cell-based or functional assay

Binder	average neutralization titer
B7	261 nM
B8	117 nM

molecular target: hemagglutinin (HA) of influenza A/Aichi/2/68 (H3N2) (influenza A virus); test: cell-based or functional assay

Binder	Average neutralization titers
B5	11 nM

molecular target: hemagglutinin (HA) of influenza A/WSN/33 (H1N1) (influenza A virus); test: cell-based or functional assay

Binder	Average neutralization titers
B5	4.2 nM

molecular target: hemagglutinin (HA) of influenza virus H7N7 A/PR8 H7N7-NY (influenza A virus); test: cell-based or functional assay

Binder	average neutralization titer
B1	> 1000 nM
B2	> 1000 nM
B3	> 1000 nM
B6	1260 nM
B4	> 1000 nM
B7	8.1 nM
B8	15.8 nM

molecular target: hemagglutinin (HA) of influenza virus B/Florida/04/06 (Yamagata) (influenza B virus); test: cell-based or functional assay

Binder	average neutralization titer
B1	194 nM
B9	249 nM
B10	1.4 nM
B2	476 nM
B3	6.4 nM
B4	1.1 nM
B7	73.7 nM
B8	213 nM

molecular target: hemagglutinin (HA) of influenza B/Brisbane/60/08 (Victoria) (influenza B virus); test: cell-based or functional assay

Binder	ADCC induction (EC50 grade, FcγRIIIa reporter bioassay)	Average neutralization titers
B9	< 0.1 µg/mL	–
B10	< 0.5 µg/mL	–
B6	> 0.5 µg/mL	–
B5	–	1.5 nM

molecular target: hemagglutinin (HA) of influenza virus H3N2 A/Wisconsin/67/05 (influenza A virus); test: cell-based or functional assay

Binder	average neutralization titer
B1	> 1000 nM
B2	503 nM
B3	552 nM
B6	27.7 nM
B4	685 nM
B7	22.3 nM
B8	22.1 nM

molecular target: hemagglutinin (HA) of influenza B/Florida/04/06 (Yamagata) (influenza B virus); test: cell-based or functional assay

Binder	ADCC induction (EC50 grade, FcγRIIIa reporter bioassay)
B9	< 0.1 µg/mL
B10	< 0.5 µg/mL
B6	> 0.5 µg/mL
